# Publication PMC12136788
# Positions count from the first letter of the chain named. Some of the results follow.
# B1: chr1:220276048:220276049:+_ENSG00000067704_ENST00000302637|hu_hu|hu_hu_hu_mus_True|8_68 (ssRNA)
# RNA: GGGAGUUCUACAGUCCGACGAUCGCAAAUUGCCUGGUUGGCGGGAAUUGUCCAAGGCUGGGUGGUCCAGACCAAAACGCUAACAGGGGAUGAGGCAUCUGUAAGAGACUCCAACUUCGGAGGAGGUUUUAAGAGAGGGAAUCUCAACAGAGGAUUGAGCAUCA
# B2: chr21:34924512:34924513:+_ENSG00000159140_ENST00000381679|hu_hu|FALSE|FALSE (ssRNA)
# RNA: GGGAGUUCUACAGUCCGACGAUCAGAUGACAUCAUGGAACGUUCUGCAGCAUAGGACAUCAUCAUAGAACGUCUAGAUGCUAACAUCAGGGGUCUAGGUGCUAACCUAUAUGGCCUGGGUGCUAUUCUAUAGGACCUGGGUGCCAACAGAGGAUUGAGCAUCA
# B3: chr12:69047915:69047916:+_ENSG00000127314_ENST00000393436|hu_hu|motif|central (ssRNA)
# RNA: GGGAGUUCUACAGUCCGACGAUCCUGUUCUCUCAGGUCUUGUAAAUCGUUAAAUGUGGACUGUGCUGUGAUGGAAUAAACGGAUGCAAAUCCUUGUCCAUUUUUCAUGUAUAAAUCCCUCAUUGCUGUAAAUUGCUCCGUUCCCAACAGAGGAUUGAGCAUCA
# B4: chr11:52220846:52220847:+_ENSMUSG00000036275_ENSMUST00000036952|mus_hu|motif|central (ssRNA)
# RNA: GGGAGUUCUACAGUCCGACGAUCAAAAGUAGCAUCACUAAUACUUCCAGAAGAAGCAUAAUAAAUCUAAAACAAUAAAAACGGACAGUGUAAAUAUAAGGUAAUGUUUAACUCACAUUUUGGACACCUGAUUAAACUCAGCUCCAACAGAGGAUUGAGCAUCA
# B5: chr1:220276048:220276049:+_ENSG00000067704_ENST00000302637|hu_hu|hu_hu_hu_mus_True|68_88 (ssRNA)
# RNA: B1 RNA with U48C, U127C, U129C, A131G, A135G
# B6: chr3:41266445:41266446:+_ENSG00000168036_ENST00000349496|perfect_dup|FALSE|FALSE (ssRNA)
# RNA: GGGAGUUCUACAGUCCGACGAUCCAUGGCAGCUCGGACCCUCUGAGCCCUAGUCAUUGCAUACUGCCCGUCAAUAUCAGCUACUUGCUCUUGCGUGAAGGACUGGGAAAAGCCUUGCUCCCAUUCAUAAAGGACUUGGGAGGUCAACAGAGGAUUGAGCAUCA
# B7: chr3:148802587:148802588:-_ENSG00000071794_ENST00000310053|hu_mus|hu_hu_hu_mus_False|28_28 (ssRNA)
# RNA: GGGAGUUCUACAGUCCGACGAUCUCCAACAACUUGUCCUCUCAUAGUUCCAAAUAAAACCAAAUCUUGCUCUUCAUCACUCGUUAGGAAGUCAUCUGGAGGAAUAACAUCUUGGAAUUCAAAAUGUGGCAAGAAAGUUGAGUACAACAGAGGAUUGAGCAUCA
# B8: chr7:97319096:97319097:+_ENSMUSG00000039361_ENSMUST00000049537|mus_mus|FALSE|FALSE (ssRNA)
# RNA: GGGAGUUCUACAGUCCGACGAUCAUCUUUGAAGAGGAGCAUGAAGGCAGCAUUUAUUACCCCAUUUGUAAGUUCAUUACUAUUAACAUUAAAAUCAAGAAGUGCAUCCAUUUGAUUUUGGAUAAUUGGUACAGUUUUUAAGAGCAACAGAGGAUUGAGCAUCA
# B9: chr1:235599081:235599082:+_ENSG00000116957_ENST00000366601|hu_hu|FALSE|FALSE (ssRNA)
# RNA: GGGAGUUCUACAGUCCGACGAUCCAGGUGGGCUAUCAGAUACAGCUGAUUUUCAUCAAUUAAUUGAUUAGAGGAAAGAUCUAAUAACUUGACUGUCUGGAGAACAUCUGUUGGCCUUUCGGAAAUGAAAAUGUUGUUAGACUCCAACAGAGGAUUGAGCAUCA
# B10: chr3:179287964:179287965:+_ENSG00000136518_ENST00000429709|hu_hu|hu_hu_hu_mus_True|1_58 (ssRNA)
# RNA: GGGAGUUCUACAGUCCGACGAUCCUUGAGUGGUGAGAUGGCCUCCAUGUUCUCCCUGGGCACGCGGAGGGCAUUGGUAUCUAUGUAGUAGGUGGGCCCGCCCUGCUUGCCUUUGUCACCAUCAAUCUCCAUCAUUGUGCUUCCCAACAGAGGAUUGAGCAUCA
# B11: chr12:48538843:48538844:+_ENSG00000152556_ENST00000359794|hu_mus|FALSE|FALSE (ssRNA)
# RNA: GGGAGUUCUACAGUCCGACGAUCCUCCUUGAUUUUCCCAGACAUCCAGUUCAUAGCCUUAGCACCCAUCUUAGUGGCAAAAUUCCUGUCAAAGGGAGUUGGGCUUCCACCCUGCUGCAUGUGGCCAAGCACGUUCUUCCUGCUCAACAGAGGAUUGAGCAUCA
# B12: chr16:44739181:44739182:-_ENSMUSG00000022668_ENSMUST00000162512|mus_hu|FALSE|FALSE (ssRNA)
# RNA: GGGAGUUCUACAGUCCGACGAUCAACAGGUUUUCAUUUUAUGGAUGUGCUCUUGUCAGUUUGUUAAAAUAGGGGAAUCAGCUAGUAGCUGUUCUAAUGAACACCAUAAUUCAAUAACUUACAAACUUUUUUCACCUCAGGCACCAACAGAGGAUUGAGCAUCA
# B13: 42271696_42271921_939_3pUTR_ENSG00000087152_ENST00000454077|human|control|control (ssRNA)
# RNA: GGGAGUUCUACAGUCCGACGAUCGGAACCUAGGCCGGAGGCAGUCCCUACCAGGCUCAGAUGGGAUUUCUUUUUCUUGGUUUUCCGUGACUCAGAGCUGUUGGUACCUAGACCCCAUCCCUGAUUUUCACUCGUCUUGGAGGACAACAGAGGAUUGAGCAUCA
# B14: chr3:96579679:96579680:+_ENSMUSG00000028098_ENSMUST00000029740|mus_mus|motif|central (ssRNA)
# RNA: GGGAGUUCUACAGUCCGACGAUCAGGCCGACUUGGUCCCCAAAAGUCAGUGUGAGUUUGGUGACCUCUCUCAUUGGCUCGGUUAUCUUGGUCCAGUGGAUUGCUACUUAGAAAUGGUCUAAAAUCUUGUAAAAACAUUGUGUGCAACAGAGGAUUGAGCAUCA
# Target: T1, UNK ZnF1-3 (human, UniProt Q9C0B0 31-174)
# T1 sequence: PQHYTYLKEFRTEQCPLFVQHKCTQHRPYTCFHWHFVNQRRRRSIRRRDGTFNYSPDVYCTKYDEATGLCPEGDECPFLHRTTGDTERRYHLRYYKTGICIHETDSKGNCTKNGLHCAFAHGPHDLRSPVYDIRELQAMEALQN
# Assay: nsRBNS (natural sequence RNA bind-n-seq); RBNS binding buffer (assumed for nsRBNS): 25 mM Tris pH 7.5, 150 mM KCl, 3 mM MgCl2, 0.01% Triton X-100, 500 ug/ml BSA, 20 U/ml SUPERase-In, 4 C; UNK is unkempt and MSI1 is Musashi-1; names of the RNAs are library labels; protein concentration not given here; high values mean tight binding
row,Binder,binding signal [enrichment R]
1,B1,1.89
2,B2,0.804
3,B3,0.941
4,B4,2.51
5,B5,1.37
6,B6,0.798
7,B7,1.39
8,B8,2.04
9,B9,1.61
10,B10,0.674
11,B11,0.843
12,B12,1.31
13,B13,0.678
14,B14,1.09
